Experimental data as given in the supplement of paper PMC12217912.
This is one part of the list. Sequences were assembled here from the parent chain. Inactive controls read about 0.05.

B1: TEV protease; numbered along this chain (parent)
chain: MGESLFKGPRDYNPISSSICHLTNESDGHTTSLYGIGFGPFIITNKHLFRRNNGTLVVQSLHGVFKVKDTTTLQQHLVDGRDMIIIRMPKDFPPFPQKLKFREPQREERICLVTTNFQTKSMSSMVSDTSCTFPSGDGIFWKHWIQTKDGQCGSPLVSTRDGFIVGIHSASNFTNTNNYFTSVPKNFMELLTNQEAQQWVSGWRLNADSVLWGGHKVFMVKPEEPFQPVKEATQL

Variants of: B1
Assay: raw area under fraction-flipped curve 0-4 h after induction (AUC4h, not background-subtracted), DNA-recorder readout of cleavage of the substrate (dimensionless); higher = more cleavage of the substrate by the protease variant
Details: temperature: 34 °C; time window: 0-4 h after rhamnose induction
Protocol: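 In vivo DNA recorder in E. coli TOP10(DE3) ΔrhaA at 34 °C. Each TEVp single-site mutant (parent TEVp 0) is paired with a single-site variant of the 7-mer TEVs (canonical ENLYFQ|S). The substrate sits between flexible linkers in a Bxb1-sfGFP-TEVs-SsrA fusion, so cleavage stabilises Bxb1 and speeds flipping of a recombination array, read by NGS. The value is the raw area under the fraction-flipped curve over 0-4 h after rhamnose induction (AUC4h), with ≥20 reads per time point. It is not background-subtracted; inactive controls average about 0.047.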
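Also: Bxb1 expression induced with 0.2% (w/v) L-rhamnose at OD600 near 0.5, cultures sampled hourly, flipped fraction per protease–substrate barcode pair counted by paired-end Illumina sequencing.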

Row | Variant | area with substrate ENLYFQA | area with substrate ENLYFQC | area with substrate ENLYFQF | area with substrate ENLYFQG | area with substrate ENLYFQI | area with substrate ENLYFQK | area with substrate ENLYFQM | area with substrate ENLYFQN | area with substrate ENLYFQP | area with substrate ENLYFQR | area with substrate ENLYFQS | area with substrate ENLYFQT | area with substrate ENLYFQW | area with substrate ENLYFQY | area with substrate ENLYFQH | area with substrate ENLYFQL | area with substrate ENLYFQD | area with substrate ENLYFQQ | area with substrate ENLYFQE | area with substrate ENLYFQV
1 | MGESLFKGPRDYNPISSSICHLTNESDGHTTSLYGIGFGPFIITNKHLFRRNNGTLVVQSLHGVFKVKDTTTLQQHLVDGRDMIIIRMPKDFPPFPQKLKFREPQREERICLVTTNFQTKSMSSMVSDTSCTFPSGDGIFWKHWIQTKDGQCGSPLVSTRDGFIVGIHSASNFTNTNNYFTSVPKNFMELLTNQEAQQWVSGWRLNADSVLWGAHKVFMVKPEEPFQPVKEATQL [G214A] | 0.0589 | 0.112 | 0.086 | 0.0861 | 0.064 | 0.0656 | 0.0647 | 0.0642 | 0.0605 | 0.0705 | 0.0932 | 0.0602 | 0.0513 | 0.0469 |  |  |  |  |  | 
2 | MGESLFKGPRDYNPISSSICHLTNESDGHTTSLYGIGFGPFIITNKHLFRRNNGTLVVQSLHGVFKVKDTTTLQQHLVDGRDMIIIRMPKDFPPFPQKLKFREPQREERICLVTTNFQTKSMSSMVSDTSCTFPSGDGIFWKHWIQTKDGQCGSPLVSTRDGFIVGIHSASNFTNTNNYFTSVPKNFMELLTNQEAQQWVSGWRLNADSVLWDGHKVFMVKPEEPFQPVKEATQL [G213D] | 0.0667 | 0.0754 |  |  | 0.0387 | 0.0626 | 0.036 | 0.0536 | 0.0545 | 0.0637 | 0.0732 | 0.0636 |  | 0.0851 | 0.0815 | 0.065 |  |  |  | 
3 | MGESLFKGPRDYNPISSSICHLTNESDGHTTSLYGIGFGPFIITNKHLFRRNNGTLVVQSLHGVFKVKDTTTLQQHLVDGRDMIIIRMPKDFPPFPQKLKFREPQREERICLVTTNFQTKSMSSMVSDTSCTFPSGDGIFWKHWIQTKDGQCGSPLVSTRDGFIVGIHSASNFTNTNNYFTSVPKNFMELLTNQEAQQWVSGWRLNADSVLWMGHKVFMVKPEEPFQPVKEATQL [G213M] | 0.056 | 0.0509 |  | 0.0621 | 0.0515 | 0.0531 | 0.0573 | 0.112 | 0.0539 | 0.0574 | 0.06 | 0.0627 |  | 0.053 | 0.0542 | 0.0634 | 0.0588 | 0.0528 |  | 
4 | MGESLFKGPRDYNPISSSICHLTNESDGHTTSLYGIGFGPFIITNKHLFRRNNGTLVVQSLHGVFKVKDTTTLQQHLVDGRDMIIIRMPKDFPPFPQKLKFREPQREERICLVTTNFQTKSMSSMVSDTSCTFPSGDGIFWKHWIQTKDGQCGSPLVSTRDGFIVGIHSASNFTNTNNYFTSVPKNFMELLTNQEAQQWVSGWRLNADSVLFGGHKVFMVKPEEPFQPVKEATQL [W212F] | 0.121 | 0.107 |  |  | 0.0695 | 0.0629 | 0.0845 | 0.0982 |  |  | 0.121 | 0.0478 | 0.0773 |  | 0.114 |  |  | 0.0063 |  | 
5 | MGESLFKGPRDYNPISSSICHLTNESDGHTTSLYGIGFGPFIITNKHLFRRNNGTLVVQSLHGVFKVKDTTTLQQHLVDGRDMIIIRMPKDFPPFPQKLKFREPQREERICLVTTNFQTKSMSSMVSDTSCTFPSGDGIFWKHWIQTKDGQCGSPLVSTRDGFIVGIHSASNFTNTNNYFTSVPKNFMELLTNQEAQQWVSGWRLNADSVLDGGHKVFMVKPEEPFQPVKEATQL [W212D] | 0.0587 | 0.075 |  |  |  | 0.063 |  |  |  | 0.0586 | 0.0663 | 0.0687 | 0.0608 |  |  | 0.0586 |  |  |  | 
6 | MGESLFKGPRDYNPISSSICHLTNESDGHTTSLYGIGFGPFIITNKHLFRRNNGTLVVQSLHGVFKVKDTTTLQQHLVDGRDMIIIRMPKDFPPFPQKLKFREPQREERICLVTTNFQTKSMSSMVSDTSCTFPSGDGIFWKHWIQTKDGQCGSPLVSTRDGFIVGIHSASNFTNTNNYFTSVPKNFMELLTNQEAQQWVIGWRLNADSVLWGGHKVFMVKPEEPFQPVKEATQL [S201I] | 0.106 |  |  | 0.0857 |  | 0.0595 |  | 0.0645 |  |  | 0.0945 |  |  | 0.0847 | 0.0602 | 0.0546 |  |  | 0.0919 | 0.0587
7 | MGESLFKGPRDYNPISSSICHLTNESDGHTTSLYGIGFGPFIITNKHLFRRNNGTLVVQSLHGVFKVKDTTTLQQHLVDGRDMIIIRMPKDFPPFPQKLKFREPQREERICLVTTNFQTKSMSSMVSDTSCTFPSGDGIFWKHWIQTKDGQCGSPLVSTRDGFIVGIHSASNFTNTNNYFTSVPKNFMELLTNQEAQQWVSMWRLNADSVLWGGHKVFMVKPEEPFQPVKEATQL [G202M] | 0.0821 | 0.0697 |  | 0.0747 |  | 0.0551 | 0.0606 | 0.0783 |  |  | 0.076 | 0.0428 |  |  | 0.0332 |  |  | 0.0555 |  | 0.0291
8 | MGESLFKGPRDYNPISSSICHLTNESDGHTTSLYGIGFGPFIITNKHLFRRNNGTLVVQSLHGVFKVKDTTTLQQHLVDGRDMIIIRMPKDFPPFPQKLKFREPQREERICLVTTNFQTKSMSSMVSDTSCTFPSGDGIFWKHWIQTKDGQCGSPLVSTRDGFIVGIHSASNFTNTNNYFTSVPKNFMELLTNQEAQQWVSGWRLNADSVLWGGHKVFMAKPEEPFQPVKEATQL [V220A] | 0.102 | 0.163 |  |  |  | 0.0683 | 0.0953 |  | 0.0761 | 0.0486 | 0.107 |  | 0.0661 | 0.0632 | 0.0961 | 0.0684 | 0.0753 |  | 0.0624 | 
9 | MGESLFKGPRDYNPISSSICHLTNESDGHTTSLYGIGFGPFIITNKHLFRRNNGTLVVQSLHGVFKVKDTTTLQQHLVDGRDMIIIRMPKDFPPFPQKLKFREPQREERICLVTTNFQTKSMSSMVSDTSCTFPSGDGIFWKHWIQTKDGQCGSPLVSTRDGFIVGIHSASNFTNTNNYFTSVPKNFMELLTNQEAQQWVSGERLNADSVLWGGHKVFMVKPEEPFQPVKEATQL [W203E] | 0.0623 | 0.0571 |  |  |  | 0.0611 |  | 0.0646 | 0.0513 | 0.0568 | 0.0662 | 0.0613 | 0.0857 | 0.0486 |  |  |  |  |  | 
10 | MGESLFKGPRDYNPISSSICHLTNESDGHTTSLYGIGFGPFIITNKHLFRRNNGTLVVQSLHGVFKVKDTTTLQQHLVDGRDMIIIRMPKDFPPFPQKLKFREPQREERICLVTTNFQTKSMSSMVSDTSCTFPSGDGIFWKHWIQTKDGQCGSPLVSTRDGFIVGIHSASNFTNTNNYFTSVPKNFMELLTNQEAQQWVSGCRLNADSVLWGGHKVFMVKPEEPFQPVKEATQL [W203C] | 0.0504 | 0.0668 |  |  | 0.0531 | 0.062 | 0.0623 | 0.0447 |  | 0.0651 | 0.0653 | 0.0293 |  | 0.0571 | 0.0427 | 0.0527 | 0.0569 | 0.0601 | 0.0574 | 0.0597
